{"source": "PubChem BioAssay AID485294", "about": "(National Center for Advancing Translational Sciences (NCATS), 2010)", "note": "About 150 (0.041%) of roughly 370,000 compounds were called active. Inconclusive results, whose numbers are uncertain, are shown with a selection of clear calls. The call rests on the fitted dose curve; in most records, active means well fitted inhibition curve with a large enough effect; inconclusive means small, poorly fitted or top-dose-only effect; inactive means flat fitted curve, though single readings scatter. No potency is given beside an inconclusive call; the fits are too rough."}
{"target": "Beta-lactamase (Escherichia coli (strain K12)) (UniProt P00811)", "sequence (P00811 whole entry, looked up)": "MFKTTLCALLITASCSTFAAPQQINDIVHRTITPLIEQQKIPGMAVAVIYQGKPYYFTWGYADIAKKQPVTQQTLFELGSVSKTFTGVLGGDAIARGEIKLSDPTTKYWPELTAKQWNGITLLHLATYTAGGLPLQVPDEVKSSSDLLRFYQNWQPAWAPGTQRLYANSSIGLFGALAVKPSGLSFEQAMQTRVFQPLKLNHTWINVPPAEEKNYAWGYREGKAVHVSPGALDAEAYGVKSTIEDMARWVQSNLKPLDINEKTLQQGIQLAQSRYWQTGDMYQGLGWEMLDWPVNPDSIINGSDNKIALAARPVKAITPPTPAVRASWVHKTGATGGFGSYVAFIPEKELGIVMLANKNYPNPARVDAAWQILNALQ", "test": "qHTS Inhibitors of AmpC Beta-Lactamase (assay with detergent); further: nearly all actives have a fitted effect of over 25% in size; further: potency means the concentration at half of the fitted maximal effect; tags describe the fitted curve by direction and shape;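 on activity change, negative = inhibition: 0% = no-compound wells and -100% = no-enzyme wells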", "conditions": "AmpC hydrolysis of nitrocefin, absorbance 480 nm, 0.01% Triton; activity change, negative = inhibition: at 114 µM (top of the series)", "outline": "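AmpC (5.3 nM in the dispensed reagent) in 20 mM phosphate pH 7.0 with 0.01% (detergent screen) or 0.0001% Triton X-100 was preincubated with compounds for 15 min at room temperature. Nitrocefin was then added from an 800 uM solution, and hydrolysis was followed at 480 nm.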"}
{"compound": "CCN(CC)CCCN1C(=O)C(O)=C(C(=O)c2ccc(C)o2)C1c1cccs1", "note": "(stereo unspecified)", "activity change, negative = inhibition": "inactive: 4.69%"}
{"compound": "N#Cc1ccc(C[C@H](C(=O)O)N2C(=O)c3ccc(C(=O)O)cc3C2=O)cc1", "Potency": "inconclusive [inhibitor, full curve, poor fit]"}
{"compound": "CCc1ccc(OCC(=O)NC(=S)Nc2cccc(CO)c2)c(Br)c1", "activity change, negative = inhibition": "inactive: -3.67%"}
{"compound": "O=C(/C=C/c1ccco1)N1CCN(S(=O)(=O)c2ccc(F)c(F)c2F)CC1", "Potency": "inconclusive [inhibitor, single point]"}
{"compound": "CC(=O)c1c(-c2ccccc2)[nH]c2ccccc12", "Potency": "inconclusive [inhibitor, full curve]"}
{"compound": "CCOc1ccc(/C(O)=C2/C(=O)C(=O)N(CCOCCO)C2c2ccccc2)cc1", "note": "(stereo unspecified)", "Potency": "inconclusive [inhibitor, single point]"}
{"compound": "Cc1csc(NC(=O)CSc2nnc(-c3cccs3)n2C)n1", "Potency": "inconclusive [inhibitor, partial curve]"}
{"compound": "Cc1ccc(SCC2(O)CCN(S(=O)(=O)c3ccc(Cl)cc3)CC2)cc1", "Potency": "inconclusive [inhibitor, partial curve, poor fit]"}
{"compound": "CSCCC(NC(=O)COc1ccccc1)C(=O)N1CCN(c2ccccc2F)CC1", "note": "(stereo unspecified)", "Potency": "inconclusive [inhibitor, partial curve]"}
{"compound": "CCCCCCCNC(=O)C1(CC2CC(c3cccc(Br)c3)=NO2)CCNCC1", "note": "(stereo unspecified)", "Potency": "inconclusive [inhibitor, full curve, poor fit]"}
{"compound": "O=S(=O)(c1cccc(S(=O)(=O)N2CCCC2)c1)N1CCCCC1", "Potency": "inconclusive [inhibitor, full curve, poor fit]"}
{"compound": "CCN(CC)c1nc(OC)nc(-n2nnc(C(C)=O)c2C)n1", "Potency": "inconclusive [inhibitor, full curve, poor fit]"}
{"compound": "CC(C)c1c(Cl)c(O)c(-c2ccccc2)c(=O)n1-c1ccc(F)cc1", "Potency": "inconclusive [inhibitor, partial curve, poor fit]"}
{"compound": "O=C1c2ccccc2C(=O)N1CCc1nc2ccccc2c(=O)n1Cc1ccco1", "activity change, negative = inhibition": "inactive: -14.2%"}
{"compound": "COc1ccc(C(=O)Nc2cccc(NC(=O)c3cccs3)c2)cc1", "Potency": "inconclusive [inhibitor, full curve]"}
{"compound": "Cc1occc1C(=O)OCC(=O)Nc1ccc(F)cc1", "Potency": "inconclusive [inhibitor, full curve]"}
{"compound": "O=C(NCCc1nnc2ccc(NCc3ccc(F)cc3)nn12)c1ccccc1", "Potency": "inconclusive [inhibitor, single point]"}
{"compound": "CCCCCCN(CCCCCC)C(=O)Cc1c(-c2ccc(F)cc2)[nH]c2ccccc12", "Potency": "inconclusive [inhibitor, full curve, poor fit]"}
{"compound": "O=C1NC2c3ccccc3CC2O1", "note": "(stereo unspecified)", "Potency": "inconclusive [inhibitor, full curve, poor fit]"}
{"compound": "O=C(/C=C/c1ccccc1)NCCSCc1ccccc1", "Potency": "inconclusive [inhibitor, partial curve, poor fit]"}
{"compound": "N#CCCSCc1ccc(C(=O)O)o1", "Potency": "inconclusive [inhibitor, full curve, poor fit]"}
{"compound": "N#Cc1ccc(Oc2cccc(C(=O)O)c2)cc1C#N", "Potency": "inconclusive [inhibitor, full curve]"}
{"compound": "CC(C)NS(=O)(=O)c1ccc(NC(=S)NC(=O)c2ccc(-c3ccccc3)cc2)cc1", "activity change, negative = inhibition": "inactive: 3.54%"}
{"compound": "CCCCCCCSc1nc(N)cc(=O)[nH]1", "Potency": "inconclusive [inhibitor, partial curve, poor fit]"}
{"compound": "CCn1c(COc2ccc(=O)n(-c3ccccc3)n2)nnc1SCc1cccc(OC)c1", "Potency": "inconclusive [inhibitor, single point]"}
{"compound": "Cc1cnc(NC(=O)c2ccc(-c3ccc([N+](=O)[O-])cc3)o2)s1", "Potency": "inconclusive [inhibitor, full curve]"}
{"compound": "CC(=O)Cc1c(C(=O)O)c(C)nn1-c1ccccc1", "Potency": "inconclusive [inhibitor, partial curve]"}
{"compound": "CCCCn1c(=O)[nH]c(=O)c2c1ncn2Cc1ccco1", "Potency": "inconclusive [inhibitor, single point]"}
{"compound": "COc1ccc(/C=C/C(=O)OCC(=O)Nc2cccc(C(C)=O)c2)cc1", "Potency": "inconclusive [inhibitor, full curve, poor fit]"}
{"compound": "O=C(CCc1ccccn1)N1CCCC(Nc2ccc(F)cc2)C1", "note": "(stereo unspecified)", "Potency": "inconclusive [inhibitor, partial curve]"}
{"compound": "Cc1ccc(S(=O)(=O)c2nc(S(=O)(=O)c3ccccc3)sc2N2CCN(CCO)CC2)cc1", "activity change, negative = inhibition": "inactive: -15.8%"}
{"compound": "COc1ccc(-n2c(CN3CCC(C(N)=O)CC3)nc3ccc([N+](=O)[O-])cc3c2=O)c(OC)c1", "activity change, negative = inhibition": "inactive: -1.76%"}
{"compound": "CN(C)c1ccc(Nc2nc(N)c([N+](=O)[O-])c(N3CCOCC3)n2)cc1", "Potency": "inconclusive [inhibitor, partial curve, poor fit]"}
{"compound": "CNc1nc(C)c([N+](=O)[O-])c(Nc2ccc(OC)cc2)n1", "Potency": "inconclusive [inhibitor, full curve, poor fit]"}
{"compound": "COc1cc(OC)c(C(=O)NCc2ccc3c(c2)OCO3)cc1OC", "Potency": "inconclusive [inhibitor, full curve, poor fit]"}
{"compound": "O=C1N/C(=N/O)S/C1=C/c1cccnc1", "Potency": "inconclusive [inhibitor, partial curve, poor fit]"}
{"compound": "O=C(Nc1ccc(N2CCOCC2)cc1)c1cnccn1", "activity change, negative = inhibition": "inactive: -12.1%"}
{"compound": "Cc1ccccc1NC(=O)CC1SC(=NC2CCCCC2)NC1=O", "note": "(stereo unspecified)", "Potency": "inconclusive [inhibitor, full curve, poor fit]"}
{"compound": "CC(=O)c1c(C)[nH]c(C(=O)OCC(=O)NCCc2ccc(Cl)cc2)c1C", "activity change, negative = inhibition": "inactive: -2.13%"}
{"compound": "CCCN1CCN(CC(=O)Nc2nncs2)CC1", "activity change, negative = inhibition": "inactive: 2.11%"}
{"compound": "CCc1cc2c(=O)c(-c3cscn3)coc2c(CN(C)C)c1O", "Potency": "inconclusive [inhibitor, full curve]"}
{"compound": "CN(C)c1ccc(N=Nc2ccccc2C(=O)OCC(=O)NCC2CCCCC2)cc1", "Potency": "inconclusive [inhibitor, full curve, poor fit]"}
{"compound": "N#CC1(NC(=O)COC(=O)c2nc(Cl)c(Cl)c(N)c2Cl)CCCCC1", "Potency": "inconclusive [inhibitor, full curve]"}
{"compound": "O=C1OC(/C(=C\\Nc2cc(Cl)ccc2O)[N+](=O)[O-])c2ccccc21", "note": "(stereo unspecified)", "Potency": "inconclusive [inhibitor, full curve, poor fit]"}
{"compound": "CCOc1ccc(CCNC(=O)CCc2nnc3ccc(N4CCCCC4)nn23)cc1OCC", "Potency": "inconclusive [inhibitor, partial curve]"}
{"compound": "Cc1cc(N2CCN(c3ccccc3)CC2)nc(N2CCOCC2)n1", "Potency": "inconclusive [inhibitor, single point]"}
{"compound": "COc1cccc(OCCOCC(O)CN2CCN(Cc3ccc(Cl)cc3)CC2)c1", "note": "(stereo unspecified)", "Potency": "inconclusive [inhibitor, full curve, poor fit]"}
{"compound": "CSc1ccccc1C(=O)NCC1CCCO1", "note": "(stereo unspecified)", "Potency": "inconclusive [inhibitor, single point]"}
{"compound": "Fc1ccccc1C1c2[nH]c3ccccc3c2CCN1CCCn1cccn1", "note": "(stereo unspecified)", "activity change, negative = inhibition": "inactive: 11.7%"}
{"compound": "C/C=C(/C)C(=O)O[C@H]1[C@@H](O)c2c(ccc3ccc(=O)oc23)OC1(C)C", "Potency": "inconclusive [inhibitor, full curve, poor fit]"}
{"compound": "N#CCc1ccc(Oc2ncccn2)cc1", "activity change, negative = inhibition": "inactive: -8.48%"}
{"compound": "Cc1cccc(NC(=O)CSc2nc3c(oc4ccccc43)c(=O)n2-c2ccccc2)c1", "Potency": "inconclusive [inhibitor, partial curve, poor fit]"}
{"compound": "CCNS(=O)(=O)c1ccc2nc(NC(=O)c3cccnc3)sc2c1", "Potency": "inconclusive [inhibitor, full curve]"}
{"compound": "Cc1ccn2cc(-c3cc4ccccc4oc3=O)nc2c1", "activity change, negative = inhibition": "inactive: -3.23%"}
{"compound": "COCCN(CC(=O)NCc1ccc(OC)cc1)C(=O)CCC(=O)Nc1nccs1", "Potency": "inconclusive [inhibitor, partial curve]"}
{"compound": "COc1ccc(OC)c(S(=O)(=O)N2CCCC(N3CCN(c4ccccc4)CC3)C2)c1", "note": "(stereo unspecified)", "activity change, negative = inhibition": "inactive: -5.29%"}
{"compound": "C/C=C/c1ccc(OCC(=O)Nc2ccc(C(N)=O)cc2)c(OC)c1", "Potency": "inconclusive [inhibitor, partial curve, poor fit]"}
{"compound": "CCCCOc1ccc(C(=O)NNC(=O)C2C3C=CC(C3)C2C(=O)O)cc1", "note": "(stereo unspecified)", "activity change, negative = inhibition": "inactive: -3.06%"}
{"compound": "CC1(c2ccc([N+](=O)[O-])cc2)NC(=O)N(CC(=O)Nc2cccnc2Cl)C1=O", "note": "(stereo unspecified)", "Potency": "inconclusive [inhibitor, full curve, poor fit]"}
{"compound": "COc1ccc2nc(N3C(=O)C(O)=C(C(=O)c4ccco4)C3c3ccc(C)o3)sc2c1", "note": "(stereo unspecified)", "Potency": "inconclusive [inhibitor, full curve, poor fit]"}
{"compound": "CCOc1ccc(NS(=O)(=O)c2ccc(C(=O)NCc3ccccn3)cc2)cc1", "Potency": "inconclusive [inhibitor, full curve, poor fit]"}
{"compound": "Cc1cccc(NC(=O)c2ccc3c(Cl)c4c(nc3c2)CCCC4)n1", "Potency": "inconclusive [inhibitor, full curve]"}
{"compound": "O=C(NCCc1ccc(Cl)cc1)c1cccnc1", "activity change, negative = inhibition": "inactive: -1.23%"}
{"compound": "CC(=O)Nc1cccc(C(=O)N2CCC(n3nccc3NC(=O)CC(C)C)CC2)c1", "Potency": "inconclusive [inhibitor, partial curve, poor fit]"}
{"compound": "COc1ccc2[nH]c3c(=O)n(CCCCC(=O)NCCC(C)C)c(=S)[nH]c3c2c1", "activity change, negative = inhibition": "inactive: -15.7%"}
{"compound": "CCCCN(C(=O)c1cccc2c(=O)c(C)c(-c3ccccc3)oc12)c1ccccc1", "Potency": "inconclusive [inhibitor, full curve]"}
